This note sets out measurements from the RNAGym collection of RNA variant scans (doi:10.1093/nar/gkz1192).

B1: CPEB3 Ribozyme (parent)
chain: UAACAGGGGGCCACAGCAGAAGCGUUCACGUCGCAGCCCCUGUCAGAUUCUGGUGAAUCUGCGAAUUCUGCUGUAUAUCUC

Read counts are not given, so values of variants with three or more changes are uncertain.

The series covers variants of B1. Nature of the series: self-cleavage, relative activity (ratio to wild type); higher = more cleavage; in vitro, sequencing. Put shortly: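 CPEB3 self-cleaving ribozyme mutant libraries were made by rounds of error-prone PCR, barcoded, and transcribed in vitro with T7 RNA polymerase for 5 hours at 37°C. Cleavage occurred during transcription and a 15 min DNase I step before EDTA stop. RNAs were reverse transcribed with template switching and Illumina-sequenced, with DNA sequencing mapping barcodes to variants. Relative activity is the variant's cleaved/total read fraction divided by wild type's (minimum 5 reads), averaged across three batches.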
For UAACAGGGGGCCACAGCAGAAGUGUUCACGUCGCAGCCCCUGUCAGAUUCUGGUGAAUCUGCGAAUUCAGUUGUAUAUCUC [C23U U69A C71U], the self-cleavage was determined as 0.03.
As for UAACAGGGGGCCACAGCAGAAGCAUUCACGUCGCAGCCCCUGUCGGAUUCUGGUGAAUCUGCGGAUUCUGCUGUAAAUCUC [G24A A45G A64G U76A], the self-cleavage is 0.05.
Take UAACAGGGGGCCACAGCAGAAGUGUUCACGUCGCAGCCCCUGUCAGAUCCAGGUGGAUCCGCGAAUUCUGCUGUAUAUCUC [C23U U49C U51A A56G U60C]: the self-cleavage came to 0.08.
For the variant UAACAGGGGGCCACAGCAGAAGUGUUCACGUCGCAGCCCCUGCCAGAUUCUGGUGAAUCCGCGAAUUCUGCUGUAUAUCUC [C23U U43C U60C], the self-cleavage turned out to be 0.12.
The value for UAACAGGGGGCCACAGCAGAAGCAUUCCCGUCGCAGCCCCUGUCAGAUUCUGGUGAAUCUGCGACUUCUGCUGUAUAUCUC [G24A A28C A65C] was 0.16; that for UAACAGGGGGCCACAGCAGAAGCAUUCACGUUGCAGCCCCUGUCAGAUUCUGGUGAAUCUGCGAAUUCAGCUGUAUAUCUC [G24A C32U U69A] was 0.29; that for UAACAGGGGGCCACAGCAGAAGCAUUCACGUCUCAGCCCCUGUCAGAAUCUGGUGAAUCUGCGAAUUCUGCUGUAUAUCUC [G24A G33U U48A] was 0.12.
Turning to UAACAGGGGGCCACAGCAGAAGCAUUCACGCCGCAGCCCCUGACAGAUUCUGGUGAAUCUGCGAAUUCUGCUGAGUAUCUC [G24A U31C U43A U74A A75G], the self-cleavage was 0.08.
Consider UAACAGGGGGCCACAGCAGAAGCACUCACGUCGCAGCCCAUGUCAGAUUCUGGUGAGUCUGCGAACUCUGCUGUAUACCUC [G24A U25C C40A A57G U66C U78C], for which the self-cleavage worked out at 0.09.
For UAACAGGGGGCCACAGCAGAAGCAUUCACGUCACAGGCCCUGUCAGAUUCUGGUGGAUCUGCGAAUUCUGCUGUAUAUCCG [G24A G33A C37G A56G U80C C81G] the value was 0.06; for UAACAGGGGGCCACAGCAGAAGCAUUCUCGUCGCAGCCCUUGUCAGAUUCAGGUGAGUCUGCGAAUUCUGCAGUAUAUCUC [G24A A28U C40U U51A A57G U72A], 0.07.
For UAACAGGGGGCCACAGCAGAAGCAUACACGUCGCAGCCCCUGUCAGAUUCUGGUGAAUCUGCGGAUUCUGCUGUAUAUCUC [G24A U26A A64G] the value was 0.27; for UAACAGGGGGCCACAGCAGAAGCAUUCACGUCGCAGCCCUCGUCAGAUUCUGGUGGAUCUGCGAAUCCAGCUGUAUAUCUC [G24A C40U U41C A56G U67C U69A], 0.15.
The value for UAACAGGGGGCCACAGCAGAAGCAUUCACGUCGCAGCCCCUGUCAGAUUCUGGUGGAUCUGCGGGUUCUGCUGUAUAUCCC [G24A A56G A64G A65G U80C] was 0.11; that for UAACAGGGGGCCACAGCAGAAGCAUUCACGUCGCAGCCCCUGUCAGAUUCUUGGGAAUCUGCGAGUUCUGCUGUAUAUCUC [G24A G52U U54G A65G] was 0.32.
On to UAACAGGGGGCCACAGCAGAAGCAUUCACGUCGCGGCCCCUGCCAGAUUCUGGUGAAUCUGCGAAUUCUGCUGUAUAUCUC [G24A A35G U43C], for which the self-cleavage was 0.25.
UAACAGGGGGCCACAGCAGAAGUGUUCACGUCGCAGCCCCUGUCAGAUUCUGGUGAACCUGCGAAUUCCGCUGUGUAUCUC [C23U U58C U69C A75G]: the self-cleavage worked out at 0.09.
Consider UAACAGGGGGCCACAGCAGAAGCACUCACGUCGCAGCCCCUGUCAGAUUCUGGUGAAUCAGCGAAUUCUGCUGUAUAUCUC [G24A U25C U60A], for which the self-cleavage was determined as 0.27.
UAACAGGGGGCCACAGCAGAAGCAUUCACGUCGCAGCCCCUGUCAGAUUCUGAUGAAUCUGCGGAUUCUGCUGUAUAUCUC [G24A G53A A64G]: the self-cleavage is 0.14.
For the variant UAACAGGGGGCCACAGCAGAAGUGUUCACGUCGCAGCCCCUGUCAGAUACUGGUGAAUCUGCGAACUCAGCUGUAUAUCUC [C23U U49A U66C U69A], the self-cleavage turned out to be 0.07.
For UAACAGGGGGCCACAGCAGAAGCAUUCUCGUCGCAGCCCCCGUCAGAUUCUGGUGUACCUGCGAAUUCUGCUGUAUAUCUC [G24A A28U U41C A56U U58C], the self-cleavage worked out at 0.14.
The value for UAACAGGGGGCCACAGCAGAAGUGUUCACGUCGCAGCCCCUGUCAGAUUCUGGAGAAUCUGCGAAUCCUGCUGUAUUUCUC [C23U U54A U67C A77U] was 0.09; that for UAACAGGGGGCCACAGCAGAAGCAUUCACGUCGCAGCCCCUGUCAGAUUCUGGUGAGUCUGCGAGUUCUGCUGUAAAUCUC [G24A A57G A65G U76A] was 0.14.
Consider UAACAGGGGGCCACAGCAGAAGCAUUCACGUCGCGGCCCCUGUCAGAUUCUGGUGAAUCUGCGAAUCCUGCUGAAUAUCUC [G24A A35G U67C U74A], for which the self-cleavage stood at 0.07.
Consider UAACAGGGGGCCACAGCAGAAGCACUCACGUCGGAGCCCCUGUCAGAUCCUGGUGAAUCUGCGAAUCCUGCUGUAUAUCUC [G24A U25C C34G U49C U67C], for which the self-cleavage is 0.05.
With UAACAGGGGGCCACAGCAGAAGCAUUCACGUCGCAGCCCCUGUCAGAUUCUGGUGAAUCUGCGAAUUCUGCUUCACAUCUC [G24A G73U U74C U76C], the self-cleavage came out at 0.08.
On to UAACAGGGGGCCACAGCAGAAGCAGUCACGUCGCAGCCCCUGUCGGAUUCUGGUGAAUCUGCGAAUUCUGCUGUAUAUCUC [G24A U25G A45G], for which the self-cleavage worked out at 0.28.
In the case of UAACAGGGGGCCACAGCAGAAGCAUUCACGUCGCAGCCCCUGUAAGAUUCUGGUGAAUCUUCGAUUUCUGCUGUAUAUCUC [G24A C44A G61U A65U], the self-cleavage turned out to be 0.07.
For the variant UAACAGGGGGCCACAGCAGAAGUGUUCACGUCGCAGCCCCUGUCAGAUUCUGGUGAAUCUGCGAAUUCUGCUGCGUAUCUC [C23U U74C A75G], the self-cleavage was 0.37.
The value for UAACAGGGGGCCACAGCAGAAGCAUCCACGUCGCAGCCCCUGUCAGAUUCUGGCGAAUCUGCGAAUUCUGCUGUAUGUCUC [G24A U26C U54C A77G] was 0.13; that for UAACAGGGGGCCACAGCAGAAGCAUUCUCGUCGCAGCCCCUGUCAGAUUCAGGUGAGUCUGCGAAUUCUGCAGUAUAUCUC [G24A A28U U51A A57G U72A] was 0.07; that for UAACAGGGGGCCACAGCAGAAGCAUCCACGUCGCAGCCCCUGUCGGAUUCUGGUGAAUCUGCGAAUUCUGCUGUAUGUCUC [G24A U26C A45G A77G] was 0.22.
With UAACAGGGGGCCACAGCAGAAGCAUUCACGUCGCCGCCUCUGUCAGAUUCUGGUGAAUCUGCGAAUUCUACUGUAUAUCUC [G24A A35C C39U G70A], the self-cleavage came to 0.16.
UAACAGGGGGCCACAGCAGAAGUGUUCACGUCGCAGCCCCUGUCAGAUUCCGGCGAAUCUGCGAAUUCUGCUGUAUAUCUC [C23U U51C U54C]: the self-cleavage came to 0.51.
